Data reported in PubChem BioAssay AID493208 (National Center for Advancing Translational Sciences (NCATS), 2011).
Screen size: about 44,000 compounds; about 340 (0.77%) were called active. Not shown: some 5% with an inconclusive outcome. The call rests on the fitted dose curve; in most records, active means well fitted inhibition curve with a large enough effect; inconclusive means small, poorly fitted or top-dose-only effect; inactive means flat fitted curve, though single readings scatter. The list shows a part of the results.

Assay: Acumen qHTS Assay for Inhibitors of the mTORC1 Signaling Pathway in MEF (Tsc2-/-, p53-/-) Cells: Sytravon;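 further: plate controls were DMSO for no effect and rapamycin for full effect; nearly all actives have a fitted effect of over 50% in size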
Conditions: phospho-rpS6 immunofluorescence/PI, 24 h; series mostly up to 38.3 µM; activity change, negative = inhibition: at the top concentration
How it was run: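 Cell-based qHTS: Tsc2-/- p53-/- MEF, 24 h cpd, 37 °C; fix/perm, anti-phospho-S6 Alexa-488 + PI; Acumen 488 nm scan; pS6/PI ratio, % positive cells; rapamycin 7.5 nM = inhibition ref; PI count = viability.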

Activity change, negative = inhibition, inactive:
O=C(NCCCO)C(=O)NCC(c1ccc2c(c1)OCO2)N1CCOCC1 (stereo not given) -16.5%
CCOC(=O)C1CCCN(S(=O)(=O)c2cc3c4c(c2)CC(=O)N4CCC3)C1 (stereo not given) 3.59%
COc1ccc(C2c3c(oc4ccc(C)cc4c3=O)C(=O)N2CCCN2CCOCC2)cc1OC (stereo not given) 0.42%
COc1ccc(NC(=O)C2=CC(c3ccc4c(c3)OCO4)=NS(=O)(=O)N2C)cc1 -0.281%
CCC(C)(C)NC(=O)C1CCN(S(=O)(=O)c2c(C)noc2/C=C/c2ccc(C)cc2)CC1 -9.5%
CCc1ccc(NC(=O)Cn2c(=O)n(CCCCC(=O)NCCc3ccccc3)c(=O)c3ccccc32)cc1 0.683%
COc1ccc(C)cc1NC(=O)C1COc2ccccc2C1 (stereo not given) 0.803%
Fc1ccc(-n2cc(-c3ccccc3)c3c(NCCc4ccccc4)ncnc32)cc1 -7.34%
CCOC(=O)c1c(NC(=O)COc2c(C)cc(Cl)cc2Cl)sc2c1CCCC2 4.49%
COc1ccc(-c2noc(CC(=O)Nc3ccc(Br)cc3C)n2)cc1 -1.95%
COc1ccc(S(=O)(=O)NCC(c2ccc(N(C)C)cc2)N2CCCC2)cc1 (stereo not given) 8.33%
COc1cccc(CNC(=O)c2oc3c(c2C)-c2nn(Cc4cccc(Cl)c4)cc2CC3)c1 5.35%
Cc1cc(C)c(/C=C/c2onc(C)c2S(=O)(=O)N2CCC(C(=O)N(C)Cc3ccccc3)CC2)c(C)c1 0.983%
Cc1ccc(NC(=O)Nc2nnc(N(C)C3CCCCC3)s2)c(Cl)c1 -0.518%
Cc1ccc(-n2c(=O)c3c4c(sc3n(Cc3ccccc3C)c2=O)CCC4)cc1C -29.9%
O=C(Nc1ccc2c(c1)OCO2)c1cc(-c2ccc(Br)cc2)on1 -9.32%
Cc1ccccc1C(=O)Nc1nc2nc(-c3ccccc3)cc(=O)n2[nH]1 -1.89%
Clc1cccc(-n2cc(-c3ccccc3)c3c(N4CCCCC4)ncnc32)c1 15.3%
CCN1C(C(=O)c2ccccc2)=C(OC(=O)c2ccc(OC)cc2)c2ccccc2S1(=O)=O -5.84%
Cc1ccc(NC(=O)c2oc3ccc(S(=O)(=O)N4CCCCC4)cc3c2C)cc1Cl 6.93%
CCN(Cc1ccccc1)C(=O)CCc1c(C)nc2c(c(C)nn2-c2ccc(C)c(C)c2)c1C -1.79%
Cn1c(=O)c2c(-c3ccc(Br)cc3)n(CCc3ccccc3)cc2n(C)c1=O 0.496%
O=S(=O)(c1ccc(Br)cc1)c1nc(-c2ccco2)oc1SCc1ccccc1Cl 0.876%
CCCCOc1ccc(CNC(=O)CN2CCSc3ccccc32)cc1 -11.7%
Cc1ccc(CCNC(=O)c2nn(C)c3c2CSc2ccccc2-3)cc1 1.48%
COc1cccc(CNC(=O)CCn2c(=O)c3cccn3c3ccc(F)cc32)c1OC -17.2%
COc1ccc(-n2nc(C(=O)N(C)c3cccc(C(F)(F)F)c3)c3c4ccccc4n(C)c3c2=O)cc1 -1.65%
CCCNC(=O)C1CCC(Cn2c(=O)c3sccc3n(Cc3cccc(OC)c3)c2=O)CC1 (stereo not given) -9.05%
CCC(C(=O)N1CCN(c2cccc(C)c2C)CC1)n1nc(C)c2sc3ccccc3c2c1=O (stereo not given) -18.4%
CCn1nnc2cc(C(=O)Nc3cccc(Cl)c3)ccc21 0.465%
Cc1nc2nc(NC(=O)c3cccc(Cl)c3)[nH]n2c(=O)c1Cc1ccccc1 -2.22%
CCOc1ccc(-n2c(-c3ccc(C)cc3)nc3c(cnn3-c3ccccc3)c2=O)cc1 13.4%
CCOC(=O)C1CCC(CN(Cc2ccccc2)S(=O)(=O)c2ccc(Cl)cc2)CC1 (stereo not given) 0.633%
Cc1ccc(NC(=O)CCn2c(=O)c3cccn3c3ccccc32)c(Cl)c1 -2.68%
COc1ccc(CCNC(=O)CCc2c(C)nc3c(c(C)nn3-c3ccc(C)c(C)c3)c2C)c(OC)c1OC -0.496%
CCOC(=O)c1c(S(=O)(=O)N2CCC(C(=O)Nc3ccccc3OC)CC2)c(C)n(CC)c1C 1.98%
COc1ccc(CCNC(=O)Cn2cc(C(=O)c3ccccc3)c(=O)c3ccc(C)nc32)cc1OC 5.05%
CCOc1ccc(OCC)c(Nc2nc3ccccc3c3nnc(C)n23)c1 -5.81%
Cc1ccc2c(c1)c1c(c(=O)n(-c3ccccc3)c(=O)n1CC(=O)N1CCCC1)n2C 7.47%
COc1cccc(N2CC(NC(=O)Cc3cccs3)CC2=O)c1 (stereo not given) -0.933%
Cc1cc(C)c(Cn2c3ccccc3c3cnn(CC(=O)N4CCCCC4)c(=O)c32)c(C)c1 -0.454%
Cc1ccccc1C(=O)Nc1ccccc1C(=O)OCc1cc(=O)n2ccsc2n1 -3.94%
CN1C(=O)CC(=O)N(C)c2cc(S(=O)(=O)N(C)Cc3ccccc3)ccc21 -2.09%
CCn1cc(C(=O)NCCc2ccc(C)cc2)c(=O)c2cc(S(=O)(=O)N(C)C)ccc21 1.19%
CCCCN(CCCC)CCNC(=O)c1cn(C)c2ccc(S(=O)(=O)N3CCOCC3)cc2c1=O -10.6%
